# “And” between values parts separate entries of the source, which are not always exact repeats. Identical values can stand only once. Screen size: about 410,000 compounds; about 5,000 (1.2%) were called active. Inconclusive results, whose numbers are uncertain, are shown with a selection of clear calls. The call rests on the fitted dose curve; in most records, active means well fitted inhibition curve with a large enough effect; inconclusive means small, poorly fitted or top-dose-only effect; inactive means no such curve, though single readings can be large or run the other way. Potencies of inconclusive entries are doubtful fits and often do not repeat.
# Test: qHTS for Inhibitors of TGF-b; further: nearly all actives have a fitted effect of over 65% in size
# Conditions: HepG2 CAGA-GFP TGF-b/SMAD3 reporter, GFP fluorescence, 18 h, TGF-beta stimulated, 500 pg/mL final; series mostly up to 46.1 µM
# In short: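 HEPG2 CAGA-GFP, 1000 cells/well; 2 h settle, 37 C; cpd via pin tool; TGF-b 500 pg/mL final; 18 h, 37 C; GFP imaging ex488/em500-530; %Activity normalised to -TGF-b and +DMSO controls; CRC fit, curve class.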
# Potency means the concentration at half of the fitted maximal effect; tags describe the fitted curve by direction and shape.
row,Structure (SMILES),Potency
1,Cc1ccc(S(=O)(=O)c2nnn(CC(=O)Nc3ccccc3C)c2N)cc1,"inconclusive: 1 µM [inhibitor, partial curve, poor fit]"
2,CCOC(=O)Cc1nc2ccccc2[nH]1,"inconclusive: 35.5 µM [inhibitor, single point]"
3,CCOC(=O)c1cc(-c2ccccc2)n(CCC(=O)NCCc2ccc(C)cc2)c1C,"inconclusive: 14.1 µM [inhibitor, partial curve, poor fit]"
4,O=S(=O)(/C=C/c1cccc(Br)c1)N1CCOCC1,inactive
5,Cc1ccnc(NS(=O)(=O)c2ccc(NC(=O)c3ccc([N+](=O)[O-])s3)cc2)n1,"inconclusive: 12.6 µM [inhibitor, partial curve, poor fit]"
6,COc1ccc(OC)c(NC(=O)C(=O)NNC(=O)COc2ccc(Br)cc2C)c1,"inconclusive: 35.5 µM [inhibitor, partial curve, poor fit]"
7,Oc1c(Cl)cc(Cl)cc1C=Nc1cc(C(F)(F)F)ccc1N1CCc2ccccc2C1,"inconclusive: 35.5 µM [inhibitor, single point]"
8,CCSc1n[nH]c2nc3c(c(=O)n12)C1(CCCC1)Cc1ccccc1-3,inactive
9,CCN(CC1CCCN(CCc2cccc(F)c2)C1)C(=O)c1ccc(CSC)o1 (stereo not drawn),inactive
10,O=C1CC(c2ccsc2)c2cc3c(cc2N1)OCCO3 (stereo not drawn),"inconclusive: 7.94 µM [inhibitor, partial curve, poor fit]"
11,O=c1[nH]cc(N=Cc2cc(Cl)cc(Cl)c2O)c(=O)[nH]1,"inconclusive: 7.94 µM [inhibitor, partial curve]"
12,Cc1ccc(NC(=O)NCc2ccc3c(c2)OCO3)cc1C,"inconclusive: 25.1 µM [inhibitor, single point]"
13,CN1CCN(C(=O)c2cc3ccccc3oc2=O)CC1,inactive
14,CCOC(=O)c1c(CSc2ccccc2)oc2ccc(O)cc12,"inconclusive: 35.5 µM [inhibitor, single point]"
15,COc1ccc(C)cc1S(=O)(=O)Nc1cccc(Cl)c1Cl,"inconclusive: 5.62 µM [inhibitor, single point]"
16,CCOc1ccc(CCNC(=O)c2cc(-c3ccccc3)c(N3CCOCC3)s2)cc1OCC,"inconclusive: 6.31 µM [inhibitor, single point]"
17,CC(=O)C1(O)C(C)CC2C3CC(F)C4(O)CC(O)CCC4(C)C3CCC21C (stereo not drawn),inactive
18,CC(C)NC(=O)CCCc1cn(C)c2ccccc12,inactive
19,COc1ccc(/C=C/c2nc(-c3ccccc3O)n[nH]2)cc1,"inconclusive: 12.6 µM [inhibitor, single point]"
20,CC(C)(C)OC(=O)N1CCC(c2c(C(=O)N3CCN(c4ccccn4)CC3)cnn2-c2cccc(F)c2)CC1,inactive
21,Cc1ccc(NC(=O)Cn2c(=O)n(Cc3ccco3)c(=O)c3sc4ccccc4c32)c(C)c1,"inconclusive: 3.16 µM [inhibitor, full curve, poor fit]"
22,CCN(CC)c1ccc(-c2nn3c(-c4cccnc4)nnc3s2)cc1,inactive
23,O=C(Nc1ccc([N+](=O)[O-])cc1)Nc1cnccn1,"inconclusive: 3.98 µM [inhibitor, full curve]"

row,Structure (SMILES),Potency
1,CN(Cc1ccccc1)C(=O)c1ccc(NC(=O)Cc2ccc(NC(=O)C3CCCN(C(=O)CCc4ccccc4)C3)cc2)cc1 (stereo not drawn),inactive
2,COc1ccc(CCNC(=O)CNCCc2ccc(F)cc2)cc1,inactive
3,Cc1ccc(-c2ccc(CN3C(C(C)C)C(=O)N(Cc4cn(Cc5ccco5)nn4)CCS3(=O)=O)cc2)cc1 (stereo not drawn),"inconclusive: 12.6 µM [inhibitor, partial curve, poor fit]"
4,S=C(NC1CCCC1)N1CCN(c2cccc(Cl)c2)CC1,"inconclusive: 35.5 µM [inhibitor, single point]"
5,CCOC(=O)N1CCc2c(sc(NCc3cccs3)c2C(=O)Nc2cc(Cl)ccc2OC)C1,"inconclusive: 35.5 µM [inhibitor, partial curve, poor fit]"
6,Cc1[nH]c(=S)sc1Cc1ccc(F)cc1,"inconclusive: 0.631 µM [inhibitor, partial curve, poor fit]"
7,Cc1ccc(Cl)c(OCC(=O)Nc2ccc(S(=O)(=O)NC3=NCCCCC3)cc2)c1,"inconclusive: 25.1 µM [inhibitor, single point]"
8,CCN(CC)c1ccc(NC(=O)C2CCN(S(=O)(=O)c3ccc4c(c3)oc(=O)n4C)CC2)c(C)c1,"inconclusive: 35.5 µM [inhibitor, single point]"
9,Cc1cccc(-n2nc3c(c2NC(=O)c2ccco2)CSC3)c1C,"inconclusive: 4.47 µM [inhibitor, single point]"
10,CC1(C(=O)N2CCC(CC3CC(c4cccc(Br)c4)=NO3)(C(=O)NCC3CCCCC3)CC2)CC1 (stereo not drawn),"inconclusive: 11.2 µM [inhibitor, single point]"
11,CCOC(=O)Cn1nnnc1C(C(C)C)N(Cc1cccs1)Cc1cc2cc(C)ccc2[nH]c1=O (stereo not drawn),"inconclusive: 35.5 µM [inhibitor, single point]"
12,Cc1cccc(N2CCN(CC3CCCCC3)CC2)c1C,inactive
13,Cc1cc(C)cc(-c2nnc(SCc3ccc(C(=O)O)cc3)o2)c1,inactive
14,Cc1cc(NC(=O)c2ccc3nccnc3c2)ccc1Br,inactive
15,CN(C)CCCNC(=O)C1(O)c2cc(Br)ccc2NC(=O)N1c1ccc(Cl)cc1 (stereo not drawn),inactive
16,Cc1c(O)c2c3c(cccc3c1O)C(=O)N(c1ccccc1)C2=O,"inconclusive: 35.5 µM [inhibitor, single point]"
17,Oc1c(Br)cc(Br)cc1C=Nc1ccc2c(c1)OCCO2,"inconclusive: 22.4 µM [inhibitor, partial curve, poor fit]"
18,O=C(CSC(=S)N1CCCCC1)Nc1ncc2c(n1)CCCC2=O,inactive
19,COc1cccc(NC(=O)CSc2nc(=O)n(Cc3ccccn3)c3c2CCC3)c1,"inconclusive: 35.5 µM [inhibitor, single point]"
20,Cc1cc(Nc2ccccc2)nc(N2CCOCC2)n1,inactive
21,CCOC(=O)C(C)Oc1cccc2c(=O)n(CC(=O)Nc3cccc(OC)c3)ccc12 (stereo not drawn),"inconclusive: 35.5 µM [inhibitor, single point]"
22,CN(C)c1cc[n+](CC(=O)Nc2ccc(Cl)c([N+](=O)[O-])c2)cc1,inactive
23,O=C(CSc1ncnc2sccc12)Nc1ccccc1F,inactive

row,Structure (SMILES),Potency
1,COc1ccccc1NC(=O)CN(Cc1ccco1)C(=O)c1ccc(N2CCCC2=O)cc1,"inconclusive: 10 µM [inhibitor, partial curve, poor fit]"
2,Cc1cccc(CN2CCN([C@@H]3CS(=O)(=O)N[C@H]3COCc3ccccc3)CC2)c1,inactive
3,COc1cc(NC(=O)c2cnc(N)o2)cc(C(=O)Nc2cccc(C(F)(F)F)c2)c1,"inconclusive: 8.91 µM [inhibitor, partial curve, poor fit] and inconclusive: 22.4 µM [inhibitor, single point]"
4,COc1ccc(C(CNC(=O)c2ccc(S(=O)(=O)Nc3ccc(F)cc3)cc2)N(C)C)cc1 (stereo not drawn),inactive
5,CCC(NC(=O)Nc1ccc(OC)c(OC)c1)c1c(-n2cccc2)sc2c1CCN(C)C2 (stereo not drawn),"inconclusive: 35.5 µM [inhibitor, single point]"
6,O=C(Nc1ccc(Cl)cc1)Nc1nnc(CSCc2ccccc2Cl)s1,"inconclusive: 6.31 µM [inhibitor, single point]"
7,COc1ccccc1C(=O)NCCSc1c(C)[nH]c2ccccc12,"inconclusive: 35.5 µM [inhibitor, single point]"
8,O=C1c2ccccc2C(=O)N1CCCCc1cn(C[C@H]2CC[C@@H]([C@@H]3CC[C@H](Cn4cc(CCCCN5C(=O)c6ccccc6C5=O)nn4)O3)O2)nn1,"inconclusive: 2.82 µM [inhibitor, partial curve, poor fit]"
9,CCCC(=O)NC(=S)Nc1cc(-c2nc3ncccc3o2)ccc1C,"inconclusive: 3.16 µM [inhibitor, partial curve, poor fit]"
10,CCOC(=O)c1[nH]c(C)c(CCC(=O)Nc2cccc(C(F)(F)F)c2)c1C,inactive
11,Cc1nn2c(-c3ccccn3)ccnc2c1Cl,inactive
12,CC(CNC(=O)c1nnc(Cc2cccc(F)c2)o1)c1ccccc1 (stereo not drawn),inactive
13,COc1ccc(C(C)=O)cc1CSc1nnc(Nc2ccc(C)cc2)s1,"inconclusive: 14.1 µM [inhibitor, single point]"
14,CC1=CC2=NC(=O)/C(=C\c3cccn3CCOc3cccc(C)c3)C(=N)N2O1,inactive
15,CCc1nn2c(=O)cc(COC(=O)c3ccccc3NC(=O)COc3ccc(F)cc3)nc2s1,inactive
16,CC(C)C(NC(=O)Cc1ccccc1)C(=O)N1CCN(c2cccc(Cl)c2)CC1 (stereo not drawn),"inconclusive: 12.6 µM [inhibitor, partial curve]"
17,C=CCNc1nc(NCc2ccccc2)c(C#N)c2c1CN(C)CC2,inactive
18,CCCc1cc(=O)oc2c3c(cc(OCC(=O)N[C@@H](CSC)C(=O)O)c12)OC(C)(C)CC3,"inconclusive: 35.5 µM [inhibitor, single point]"
19,Cc1ccc(CNC(=O)CCS(=O)(=O)c2ccc3c(c2)CC(C)N3C(=O)C2CC2)cc1 (stereo not drawn),"inconclusive: 12.6 µM [inhibitor, single point]"
20,COc1ccc(Cl)cc1NC(=O)CCNC(=O)OCc1ccccc1,"inconclusive: 35.5 µM [inhibitor, single point]"
21,CCOc1ccc(-c2nnc(SCC(=O)NCc3ccc(C)cc3)nc2-c2ccc(OCC)c(OC)c2)cc1OC,inactive
22,COc1ccc(S(=O)(=O)Nc2noc3ccccc23)cc1,inactive
